This passage reports gametocyte viability results from the supplement of paper PMC12297408.

Molecules are shown by their SMILES. Counter-ions that a name gives are not always drawn. In all, about 1,300 compounds went through this assay and about 40 (3%) showed activity. The list shows a part of the results.

The test system of the assay is Plasmodium falciparum NF54/iGP1_RE9H ulg8 stage V gametocytes. Description: gametocyte viability (luciferase signal relative to DMSO control) (% of DMSO control); higher = less gametocytocidal activity, active = 50 or less. The settings on record: exposure time: 72 h. A digest of the protocol:
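Viability was calculated relative to the mean of DMSO vehicle wells on each plate. Day-12 stage V gametocytes of line NF54/iGP1_RE9Hulg8 (~2.5% gametocytemia, 3% hematocrit, 0.5% Albumax II medium) were exposed in 96-well plates to compounds at final 10 µM or 1 µM, one well each, for 72 h at 37 °C. Luminescence was then read on an IVIS Lumina II after D-luciferin addition.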

For `CCCCOc1ccc(C(=O)CCN2CCCCC2)cc1` [Dyclonine hydrochloride], the gametocyte viability by setting is: (concentration: 1 µM) inactive: 86.2; (concentration: 10 µM) inactive: 90.6.

As to `CC(C)(C)CC(C)(C)c1ccc(OCCOCC[N+](C)(C)Cc2ccccc2)cc1` [Benzethonium chloride], the gametocyte viability by setting is: (concentration: 1 µM) inactive: 82.1; (concentration: 10 µM) active: 9.32.

Take `Cn1nnc2c(C(N)=O)ncn2c1=O` [Temozolomide]: the gametocyte viability is, setting by setting: (concentration: 1 µM) inactive: 86.9; (concentration: 10 µM) inactive: 88.1.

On to `CC(C)(C)NC(=O)[C@H]1CC[C@H]2[C@@H]3CC[C@H]4NC(=O)C=C[C@]4(C)[C@H]3CC[C@]12C` [Finasteride], for which the gametocyte viability was inactive: 81.6 (concentration: 1 µM) and inactive: 69.2 (concentration: 10 µM).

Regarding `Nc1nc(N)c2nc(-c3ccccc3)c(N)nc2n1` [Triamterene], the gametocyte viability reads like this: (concentration: 1 µM) inactive: 78.5; (concentration: 10 µM) inactive: 88.5.

Turning to `CC(C)C(=O)c1c(C(C)C)nn2ccccc12` [Ibudilast], the gametocyte viability (concentration: 1 µM) was inactive: 84.4 and the gametocyte viability (concentration: 10 µM) is inactive: 82.1.

Regarding `OC(CCN1CCCC1)(c1ccccc1)C1CCCCC1` (stereo not given) [Procyclidine hydrochloride], the gametocyte viability was inactive: 97.1 (concentration: 1 µM) and inactive: 93.7 (concentration: 10 µM).

On to `CC(C)NCC(O)COc1cccc2[nH]ccc12` (stereo not given) [Pindolol], for which the gametocyte viability is inactive: 87.7 (concentration: 1 µM) and inactive: 88.8 (concentration: 10 µM).

As for `CC(CN(C)C)CN1c2ccccc2CCc2ccccc21` (stereo not given) [Trimipramine maleate salt], the gametocyte viability was inactive: 83.5 (concentration: 1 µM) and inactive: 87.1 (concentration: 10 µM).

For the molecule `CC1(C)O[C@@H]2C[C@H]3[C@@H]4C[C@H](F)C5=CC(=O)C=C[C@]5(C)[C@H]4[C@@H](O)C[C@]3(C)[C@]2(C(=O)CO)O1` [Flunisolide], the gametocyte viability was inactive: 87.5 (concentration: 1 µM) and inactive: 88.9 (concentration: 10 µM).

As for `C[C@H](CS)C(=O)N1CCC[C@H]1C(=O)O` [Captopril], the gametocyte viability is, setting by setting: (concentration: 1 µM) inactive: 86.8; (concentration: 10 µM) inactive: 84.

For `CN(Cc1cc(Br)cc(Br)c1N)C1CCCCC1` [Bromhexine hydrochloride], the gametocyte viability is inactive: 86.9 (concentration: 1 µM) and inactive: 80.8 (concentration: 10 µM).

Turning to `NCCc1ccc(O)c(O)c1` [Dopamine hydrochloride], the gametocyte viability is, setting by setting: (concentration: 1 µM) inactive: 81.2; (concentration: 10 µM) inactive: 91.8.

For `CC[C@H](c1ccc(O)cc1)[C@@H](CC)c1ccc(O)cc1` [Hexestrol], the gametocyte viability was inactive: 89.5 (concentration: 1 µM) and inactive: 89 (concentration: 10 µM).

Take `Cc1c(Nc2ncccc2C(=O)O)cccc1C(F)(F)F` [Flunixin meglumine]: the gametocyte viability by setting is: (concentration: 1 µM) inactive: 80; (concentration: 10 µM) inactive: 82.7.

In the case of `CC1(C)O[C@@H]2C[C@H]3[C@@H]4C[C@H](F)C5=CC(=O)CC[C@]5(C)[C@H]4[C@@H](O)C[C@]3(C)[C@]2(C(=O)CO)O1` [Flurandrenolide], the gametocyte viability was inactive: 91.7 (concentration: 1 µM) and inactive: 93.5 (concentration: 10 µM).

Turning to `NNC(=O)c1ccncc1` [Isoniazid], the gametocyte viability by setting is: (concentration: 1 µM) inactive: 80.8; (concentration: 10 µM) inactive: 83.4.

For `COc1ccc(-c2ccc3cc(C(=O)O)ccc3c2)cc1C12CC3CC(CC(C3)C1)C2` [Adapalene], the gametocyte viability (concentration: 1 µM) was inactive: 91.8 and the gametocyte viability (concentration: 10 µM) was inactive: 102.

As to `CCN1CCCC1CNC(=O)c1cc(S(N)(=O)=O)ccc1OC` (stereo not given) [Sulpiride], the gametocyte viability (concentration: 1 µM) is inactive: 90 and the gametocyte viability (concentration: 10 µM) is inactive: 90.4.

Turning to `CCCCc1oc2ccccc2c1C(=O)c1cc(I)c(OCCN(CC)CC)c(I)c1` [Amiodarone hydrochloride], the gametocyte viability reads like this: (concentration: 1 µM) inactive: 100; (concentration: 10 µM) inactive: 87.3.

For `O=C(O)c1cccnc1` [Niacin], the gametocyte viability is, setting by setting: (concentration: 1 µM) inactive: 89.8; (concentration: 10 µM) inactive: 83.7.

Take `Cc1cccc(N(C)C(=S)Oc2ccc3ccccc3c2)c1` [Tolnaftate]: the gametocyte viability reads like this: (concentration: 1 µM) inactive: 87; (concentration: 10 µM) inactive: 90.5.

`O=c1[nH]c(=O)n([C@H]2C[C@H](O)[C@@H](CO)O2)cc1I` [Idoxuridine]: the gametocyte viability (concentration: 1 µM) was inactive: 78.3 and the gametocyte viability (concentration: 10 µM) was inactive: 83.7.

As for `C#C[C@]1(O)CC[C@H]2[C@@H]3CCC4=Cc5oncc5C[C@]4(C)[C@H]3CC[C@@]21C` [Danazol], the gametocyte viability is, setting by setting: (concentration: 1 µM) inactive: 79.2; (concentration: 10 µM) inactive: 80.5.

Consider `CCOc1ccc(Cc2nccc3cc(OCC)c(OCC)cc23)cc1OCC` [Ethaverine hydrochloride], for which the gametocyte viability reads like this: (concentration: 1 µM) inactive: 87.3; (concentration: 10 µM) inactive: 87.

On to `O=C(Nc1ccc([N+](=O)[O-])cc1Cl)c1cc(Cl)ccc1O` [Niclosamide], for which the gametocyte viability runs as follows: (concentration: 1 µM) inactive: 80.7; (concentration: 10 µM) inactive: 75.6.

Take `CC12CC3CC(C)(C1)CC(N)(C3)C2` [Memantine Hydrochloride]: the gametocyte viability is inactive: 99.8 (concentration: 1 µM) and inactive: 96.7 (concentration: 10 µM).

Turning to `CN1CCCN=C1/C=C/c1cccs1` [Pyrantel tartrate], the gametocyte viability runs as follows: (concentration: 1 µM) inactive: 90; (concentration: 10 µM) inactive: 85.4.

Regarding `CCC[C@@H]1C[C@@H](C(=O)N[C@@H]([C@H]2O[C@H](SC)[C@H](O)[C@@H](O)[C@H]2O)[C@@H](C)O)N(C)C1` [Lincomycin hydrochloride], the gametocyte viability (concentration: 1 µM) was inactive: 94.7 and the gametocyte viability (concentration: 10 µM) was inactive: 97.

In the case of `CCN(CC)CCNC(=O)c1cc(Br)c(N)cc1OC` [Bromopride], the gametocyte viability was inactive: 104 (concentration: 1 µM) and inactive: 97.1 (concentration: 10 µM).

In the case of `OC(CCN1CCCCC1)(c1ccccc1)c1ccccc1` [Pridinol methanesulfonate salt], the gametocyte viability was inactive: 83.5 (concentration: 1 µM) and inactive: 87.9 (concentration: 10 µM).

`CCCCC(=O)N(Cc1ccc(-c2ccccc2-c2nnn[nH]2)cc1)[C@H](C(=O)O)C(C)C` [Valsartan]: the gametocyte viability (concentration: 1 µM) was inactive: 81.5 and the gametocyte viability (concentration: 10 µM) is inactive: 81.

On to `O=C1c2cccc(O)c2C(=O)c2c(O)cccc21` [1,8-Dihydroxyanthraquinone], for which the gametocyte viability was inactive: 82.8 (concentration: 1 µM) and inactive: 85.1 (concentration: 10 µM).

For the molecule `CC(C)NNC(=O)c1ccncc1` [Iproniazide phosphate], the gametocyte viability reads like this: (concentration: 1 µM) inactive: 78.8; (concentration: 10 µM) inactive: 77.5.

Consider `O=C(O)CCC(=O)c1ccc(-c2ccccc2)cc1` [Fenbufen], for which the gametocyte viability (concentration: 1 µM) is inactive: 91.8 and the gametocyte viability (concentration: 10 µM) is inactive: 93.4.

Regarding `N[C@@H](Cc1ccc(O)c(O)c1)C(=O)O` [Levodopa], the gametocyte viability by setting is: (concentration: 1 µM) inactive: 92.2; (concentration: 10 µM) inactive: 92.6.

As to `CN1CCN2c3ccccc3Cc3ccccc3C2C1` (stereo not given) [Mianserine hydrochloride], the gametocyte viability is, setting by setting: (concentration: 1 µM) inactive: 84.4; (concentration: 10 µM) inactive: 82.9.

For `C[C@H](CCC(=O)O)[C@H]1CC[C@H]2[C@@H]3C(=O)C[C@@H]4CC(=O)CC[C@]4(C)[C@H]3CC(=O)[C@]12C` [Dehydrocholic acid], the gametocyte viability was inactive: 95.4 (concentration: 1 µM) and inactive: 93.6 (concentration: 10 µM).

For the molecule `CCOC(=O)C1=C(C)NC(C)=C(C(=O)OC)C1c1cccc(Cl)c1Cl` (stereo not given) [Felodipine], the gametocyte viability (concentration: 1 µM) is inactive: 82.3 and the gametocyte viability (concentration: 10 µM) was inactive: 96.3.

Regarding `O=C1c2c(O)ccc(O)c2C(=O)c2c(NCCNCCO)ccc(NCCNCCO)c21` [Mitoxantrone dihydrochloride], the gametocyte viability reads like this: (concentration: 1 µM) inactive: 86.2; (concentration: 10 µM) active: 12.9.
